The other results are listed elsewhere or left out.
What follows are sequences tested on PfAP2-HC AP2 domain (GST-tagged) (assay: gcPBM binding intensity (ln(normalized median fluorescence intensity)); higher = stronger DNA binding).
How it was run: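 An Agilent 4 × 180k array carrying primer-extended double-stranded 36-bp intergenic genomic probes and negative controls received GST-tagged P. falciparum DNA-binding domains expressed in E. coli, about 25 μg on average, for 1 h. The binding buffer contained 1× PBS, 1% milk, 0.2 mg/ml BSA, 0.5% salmon testes DNA and 0.03% Triton X-100. Binding intensity is the top Masliner-normalised natural-log median intensity across replicate spots of either probe orientation, read after Alexa488 anti-GST antibody staining and a 488 nm scan.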

Sequence	gcPBM binding intensity (ln)
TTCTTTTAATTACGAGTGCATACCATATGACATTAT [GTGCAC_site9819]	9.74
AGAAAAGAGAGAAAAACATGCACATGATATTATAAA [TGCATGCA_site120]	9.68
GTGAATATTAAAAAATGTACACAATTATATGTATAT [XGTACX_site4834]	9.66
ATAAACATCTAGTGCTGTACACAATTTGATTTTTTT [XGTACX_site3110]	9.67
CCCTTAAAATATAAATGTACAAAATTATTTGTATGT [XGTACX_site6164]	9.56
GATTATATATACAAAAGTACATTATAAAAATTTCAT [XGTACX_site4223]	9.53
TGAGTATATATAAATACACACCAAATGTTAATATAT [CACACA_site5022]	9.69
AGGTTAATCGAAATTGCATGTGACGAAAAATCAAAA [TGCATGCA_site666]	9.53
TATTTATAACATTGTACACACAAAGAAATAATATTA [CACACA_site7422]	9.82
ACGTATGTATATTACACACATACATATTATTCACTA [CACACA_site204]	9.9
CATATATAACATATAACACACATACTTAGTATTACA [CACACA_site5674]	9.81
ATGATAAACATGGATACACACATATATATTACATAT [CACACA_site1576]	10.1
ATAATATTTTATATAGTGCATTTGCTCATTATATAT [GTGCAC_site9528]	9.62
ACATATATATACTATCGATTAATAAATTTGTTTTTT [CACACA_negctrl_site881]	9.68
AATACAAGAACTGACACACATACATACTACATTTTA [CACACA_site2829]	10.4
ATATTTATATATAGTAGTACTTTCAATAATTTAAAT [XGTACX_site7276]	9.47
AAAAAATTAAAAATACGTACATATATACATATATAT [XGTACX_site4621]	9.71
TATGATATTTATATGCGTACTGAAGTATGCCTATTT [XGTACX_site6133]	9.87
TCTTAAAATATATAGGTGCAAAAAAAAAAAAAAAAA	9.07

Sequence	gcPBM binding intensity (ln)
AAAGAAAGAAGACACACACACATATATAAATATCAA [CACACA_site7715]	10.6
ATATTCATGTTGATATGTACTTATTCTATATTGAAT [XGTACX_site8347]	9.57
ATCAGTGATTAGGTTATATATAAAAATGAACTAATA [GTGCAC_negctrl_site647]	9.62
TATATATATATATATATACACACTTGTGCAGAATAT [CACACA_site2216]	9.87
ATAATTAAAAAAAATTGTACATATAAATAGAAGATT [XGTACX_site230]	9.85
AGATTAAAATAATATAAACACACATATACTTTTTTC [CACACA_site8085]	9.82
AAAAAAAAAAGAATAGCACACACACCGATATAAATA [CACACA_site8111]	10.5
TAGGTATGCTCTCAATGTACATAAAATAATTTTACT [XGTACX_site6556]	9.58
TGTTTTTATTTATTCTGTACTGAAGAGAGTTATATA [XGTACX_site8859]	9.52
TAAGAAATAAATAGTACACACATAGACACAGACACA [CACACA_site4934]	10.6
TTTAAATACAGACATACACACATACACCCACATATA [CACACA_site8078]	10.2
GTATATGAGAAAAAAAGTACATGCACAAAATGTATA [XGTACX_site6441]	9.74
GATATTCTATAAAAAAGTACAAATATTTTAAAAAAT [XGTACX_site2177]	9.53
AGCATTAATTATTTCACACATATATATATATATATA [CACACA_site4889]	9.76
TAAATCCTTTACAACACACACACAAAAAAAAAAAAA [CACACA_site643]	10.2
TCATTTTAAAAAAATAGTACTTTAAGAAACTTTTAT [XGTACX_site602]	9.14
TTTTTTTTTTTTTTTTTTTATGTATACATATTTATA [TGCATGCA_negctrl_site234]	9.23
TTATAATGAAATATATTCTTATTCTTTTTTTTTTTT [GTGCAC_negctrl_site384]	9.37
TAAAATGTACAGGACGCACACACATATATATATATA [CACACA_site3673]	10.1

Sequence	gcPBM binding intensity (ln)
TTTTTTTTTTTTCATTGTACTCTTAAAAATTCAACT [XGTACX_site3154]	9.44
AACAACAACTAATATGCACACATTTAAAAACAAAAT [CACACA_site2440]	9.94
TATTTTTTTTTTTTTTTACACACTATAGGGAAAAAA [CACACA_site8583]	9.41
ATTAAAATTTAAAATACACACACATATATATAATAT [CACACA_site8612]	10.4
CATACATACATACATACACACACATATATATATATA [CACACA_site8593]	9.96
AAACCTTTACATCGTTTGCACTATATTGATATGTGT [GTGCAC_site9686]	9.85
TTTTTTAACAAAAATAAAACATAACTGAATTAAAAG [GTGCAC_negctrl_site244]	9.48
CTTCCTATATTTTACTGTACTTTTTTTTTTTTTTTT [XGTACX_site4016]	9.75
ACGAATTAAATTTGCTGTACCAAAAAGAAAACAATA [XGTACX_site5511]	9.62
GCTTCTTAATATCATACACACATAGATATATTTATA [CACACA_site5676]	9.86
GGAGACTTTGTATTGGGTACGTATTTCAATGCATGT [XGTACX_site1596]	9.46
AACAAATGTTAAATGTTTAAGGAGAAAATAAAGACA [CACACA_negctrl_site1163]	9.73
GAAAACATAAAAATATGTACTTAAAATATATTTTGT [XGTACX_site868]	9.72
AAAACGAAACATCTGTGTATAAGTCTATATTATTAT [XGTACX_negctrl_site301]	9.7
TTTATGTGTATTAAGTGTACACATATAGTGTATTTT [XGTACX_site999]	9.83
ATATATAAGGAAAAAAGTACTTATATTTTTTTTTTG [XGTACX_site1909]	9.52
AAATAAAGCATGTGCTGTACAAACGAAATATTTAAG [XGTACX_site3146]	10.2
TGTCATGATACATACACACACATACCCATACCCATA [CACACA_site5211]	10.6
